# According to a collection of fitness landscapes (doi:10.1126/science.1257360):
# The list shows a part of the results.
# B1: PhoQ; a variant is named by its letters at X, in order, P23837 (parent)
# chain: MKKLLRLFFPLSLRVRFLLATAAVVLVLSLAYGMVALIGYSVSFDKTTFRLLRGESNLFYTLAKWENNKLHVELPENIDKQSPTMTLIYDENGQLLWAQRDVPWLMKMIQPDWLKSNGFHEIEADVNDTSLLLSGDHSIQQQLQEVREDDDDAEMTHSVAVNVYPATSRMPKLTIVVVDTIPVELKSSYMVWSWFIYVLSANLLLVIPLLWVAAWWSLRPIEALAKEVRELEEHNRELLNPATTRELTSLVRNLNRLLKSERERYDKYRTTLTDLTHSLKTPLXXLQXXLRSLRSEKMSVSDAEPVMLEQISRISQQIGYYLHRASMRGGTLLSRELHPVAPLLDNLTSALNKVYQRKGVNISLDISPEISFVGEQNDFVEVMGNVLDNACKYCLEFVEISARQTDEHLYIVVEDDGPGIPLSKREVIFDRGQRVDTLRPGQGVGLAVAREITEQYEGKIVAGESMLGGARMEVIFGRQHSAPKDE
# Variants of: B1
# Test: enrichment ratio after two sorts for PhoP signalling (ratio (wild type AVST 3.29)); higher = more functional
# Details: with PhoP (E. coli)
row,Variant,enrichment ratio
1,PRMM,≤ 0.25
2,WIAF,≤ 0.25
3,EYCE,≤ 0.25
4,THNM,8.26
5,PEDI,≤ 0.25
6,DVYD,≤ 0.25
7,YYVV,≤ 0.25
8,MVLW,≤ 0.25
9,YSGT,≤ 0.25
10,QVPR,≤ 0.25
11,TRYQ,≤ 0.25
12,SRFA,≤ 0.25
13,WCCW,≤ 0.25
14,ARRD,≤ 0.25
15,PIIN,≤ 0.25
16,TAVS,≤ 0.25
17,FIMQ,≤ 0.25
18,AWFQ,≤ 0.25
19,FEFP,≤ 0.25
20,NVTV,≤ 0.25
21,TYMW,≤ 0.25

row,Variant,enrichment ratio
1,QRCI,≤ 0.25
2,NCPM,≤ 0.25
3,YHTY,≤ 0.25
4,KMIC,≤ 0.25
5,SPKT,≤ 0.25
6,QNGT,≤ 0.25
7,YNIS,≤ 0.25
8,VRHV,≤ 0.25
9,WCCF,≤ 0.25
10,WNVM,≤ 0.25
11,GTCF,1.25
12,LLEH,≤ 0.25
13,ISWP,≤ 0.25
14,KNCY,≤ 0.25
15,AYYK,≤ 0.25
16,VQFK,≤ 0.25
17,KQFV,≤ 0.25
18,SLMH,0.659
19,FLQP,≤ 0.25
20,RPQP,≤ 0.25
21,MLYY,≤ 0.25

row,Variant,enrichment ratio
1,LNPC,≤ 0.25
2,RVIS,≤ 0.25
3,VTQC,≤ 0.25
4,VPIT,≤ 0.25
5,WLEF,≤ 0.25
6,GYEE,≤ 0.25
7,VLWH,≤ 0.25
8,AAPP,≤ 0.25
9,RDMS,≤ 0.25
10,DIWN,≤ 0.25
11,TVHF,≤ 0.25
12,FIMM,10.3
13,DAEW,≤ 0.25
14,ERTN,≤ 0.25
15,IHWC,≤ 0.25
16,NWIP,≤ 0.25
17,MPWF,≤ 0.25
18,NRYR,≤ 0.25
19,LQRC,≤ 0.25
20,MHGL,≤ 0.25
21,KPFL,≤ 0.25

row,Variant,enrichment ratio
1,SDHR,≤ 0.25
2,NLLK,≤ 0.25
3,QCYQ,6.25
4,DKKT,≤ 0.25
5,STMF,11.1
6,EKEW,≤ 0.25
7,ERGK,≤ 0.25
8,PYWK,≤ 0.25
9,KMFF,≤ 0.25
10,SARN,≤ 0.25
11,RCSP,≤ 0.25
12,GISE,4.03
13,DVFL,≤ 0.25
14,HCMR,≤ 0.25
15,FGGI,≤ 0.25
16,KVAD,≤ 0.25
17,IMGY,≤ 0.25
18,WDMF,≤ 0.25
19,VCHW,≤ 0.25
20,HEVW,≤ 0.25
21,HWNN,≤ 0.25
